Experimental data taken from a compilation of properties of binary mixtures (doi:10.2298/jsc190413047v).
Some of these densities may be calculated back from excess volumes.

Assay: xn = mol fraction of the nth substance listed

CCCCn1cc[n+](C)c1.FC(F)(F)C(F)(F)[P-](F)(F)(F)(C(F)(F)C(F)(F)F)C(F)(F)C(F)(F)F + CCNC=O
mass density [kg/m3], 100 kPa
Details	293.15 K	298.15 K	303.15 K	308.15 K	313.15 K	318.15 K	323.15 K
x2 = 0.0583	1620.2	–	–	–	1597	1591.1	–
x2 = 0.1163	1609.3	1603.5	1597.8	1591.9	–	1580.1	1574.2
x2 = 0.2108	–	1584	1578.3	1572.5	1566.6	1560.7	1554.8
x2 = 0.2983	1569.1	1563.3	–	1551.7	1545.9	1540	–
x2 = 0.3946	1541.8	1535.9	1530.3	1524.5	–	1512.8	1507
x2 = 0.5064	1501.9	1496.2	–	1484.8	1479	1473.2	–
x2 = 0.5981	1459.7	1454.1	1448.5	1442.8	1437.1	1431.4	1425.7
x2 = 0.6987	–	–	1387.6	1382	1376.4	1370.8	1365.4
x2 = 0.7995	1312.4	1307	1301.7	1296.3	1290.9	1285.7	1280.5
x2 = 0.8981	–	–	1173.8	1168.9	1163.9	1159	1154.1
x2 = 0.9298	1126.6	1121.8	1117	–	–	1102.8	–
x2 = 0.9654	1048	1043.5	–	1034.6	–	1025.5	–

O=C1CCCO1 + CC[n+]1ccn(C)c1C.O=S(=O)([N-]S(=O)(=O)C(F)(F)F)C(F)(F)F
Details	mass density [kg/m3]
293.15 K, 100 kPa, x1 = 1	1129.5

CCCC[N+]1(C)CCCC1.FC(F)(F)C(F)(F)[P-](F)(F)(F)(C(F)(F)C(F)(F)F)C(F)(F)C(F)(F)F + CN(C)C=O
Details	mass density [kg/m3]
323.15 K, 101 kPa, x2 = 0.1147	1536.5

CCCCn1cc[n+](C)c1.FC(F)(F)C(F)(F)[P-](F)(F)(F)(C(F)(F)C(F)(F)F)C(F)(F)C(F)(F)F + CN(C)C=O
mass density [kg/m3], 100 kPa
Details	293.15 K	298.15 K	303.15 K	308.15 K	313.15 K	318.15 K	323.15 K
x1 = 0.0182	1000.5	995.5	990.6	985.6	980.5	975.3	970
x2 = 0.1054	–	1605.2	1599.3	1593.6	–	1581.9	1575.9
x2 = 0.1501	1602	–	1590.5	–	1578.8	1573	–
x2 = 0.2076	1589.6	–	–	1572.2	1566.4	–	1554.6
x2 = 0.244	–	–	1569.8	–	1558.1	1552.3	1546.4
x2 = 0.3073	1565.4	1559.6	1553.8	1548	1542.2	1536.3	1530.5
x2 = 0.403	1536.9	1531.1	1525.3	1519.5	1513.7	1507.8	–
x2 = 0.4976	1502.4	1496.7	1490.9	1485	–	1473.3	1467.4
x2 = 0.5984	1455	1449.3	1443.6	1437.7	1431.9	1426	–
x2 = 0.6983	–	1386.9	–	1375.5	1369.7	1363.9	–
x2 = 0.799	1304.8	1299.2	1293.6	–	1282.3	1276.6	1270.8
x2 = 0.9002	–	1166.3	–	1155.5	–	1144.5	1139
x2 = 0.9336	1111.3	1106.1	1100.9	1095.6	1090.3	1084.9	1079.4

CCCC[N+]1(C)CCCC1.FC(F)(F)C(F)(F)[P-](F)(F)(F)(C(F)(F)C(F)(F)F)C(F)(F)C(F)(F)F + CNC=O
mass density [kg/m3], 101 kPa
Details	x2 = 0.0971	x2 = 0.1587	x2 = 0.4036	x2 = 0.962
298.15 K	1571.5	–	–	–
303.15 K	–	1557.5	1513.5	1105.5

CCCCn1cc[n+](C)c1.FC(F)(F)C(F)(F)[P-](F)(F)(F)(C(F)(F)C(F)(F)F)C(F)(F)C(F)(F)F + CNC=O
mass density [kg/m3], 100 kPa
Details	293.15 K	298.15 K	303.15 K	308.15 K	313.15 K	318.15 K	323.15 K
x1 = 0.0177	1063.7	–	1054.5	1049.8	–	1040.3	1035.4
x2 = 0.0972	1618.6	1612.7	1606.9	1601.1	1595.2	1589.4	1583.4
x2 = 0.1852	1605.6	1599.8	1594	1588.1	1582.3	1576.4	1570.4
x2 = 0.3184	1581.8	1575.9	1570.1	1564.2	1558.3	1552.4	–
x2 = 0.3957	1564.5	1558.7	–	1547	1541.1	1535.2	–
x2 = 0.4503	–	–	1538.8	1532.9	1526.9	1521.1	1515.1
x2 = 0.5042	–	1528.7	1522.9	–	1511.1	1505.2	1499.2
x2 = 0.585	1505.4	1499.5	1493.7	1487.8	1482	–	–
x2 = 0.7032	1446.7	1441	1435.2	1429.5	1423.7	1417.8	–
x2 = 0.8	1373.8	1368.2	1362.6	1357	–	1345.6	1339.8
x2 = 0.8505	1320.2	1314.7	1309.2	1303.7	1298.1	1292.5	1287
x2 = 0.8997	–	1245.5	1240.2	1234.9	1229.6	1224.2	1218.8
x2 = 0.9336	1188	1183.2	1178	1172.9	1167.8	1162.7	1157.4
x2 = 0.9504	1150.6	1145.9	1141	1136	–	1125.9	–

O=C1CCCO1 + FC(S(=O)(=O)[N-]S(=O)(=O)C(F)(F)F)(F)F.C(CCC)N1C(=[N+](C=C1)C)C
Details	mass density [kg/m3]
293.15 K, 100 kPa, x1 = 1	1129.5
